Compound in this test: COc1ncc(-c2ccc3nccc(-c4ccnnc4)c3c2)cc1NS(=O)(=O)c1ccc(F)cc1F [GSK2126458]
As to the kind of experiment: Viability of human cancer cell lines after 72 h of drug (GDSC screen). The conditions noted are these: top dose inferred. On the procedure:
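Human cancer cell lines in 384-well plates, medium with 10% serum, drug for 72 h over a 256-fold dose range (nine 2-fold or five 4-fold steps up to the top dose). Adherent lines were fixed and stained with the nucleic acid dye Syto60, suspension lines read with resazurin; signal relative to control wells, capped at 0 and 100%. One two-parameter sigmoid per drug and line, fitted in a mixed model over all curves with the slope shared within a line.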

Lines with a small IC50 respond at low doses; where the fit passes the top or lowest dose, that dose stands as a limit. AUC sums up the same curve from the lowest dose to the 256-fold higher top dose; values near 1 show little effect. The top dose, if marked as inferred, was calculated from the reported fits.

Take “8-MG-BA (glioma, adherent, top dose 0.128 µM)”: the AUC was 0.586 and the IC50 (commonly the concentration at which inhibition is half-maximal) is 0.0135 µM.

As to “22RV1 (prostate, adherent, top dose 0.128 µM)”, the AUC is 0.6 and the IC50 worked out at 0.0161 µM.

“42-MG-BA (glioma, adherent, top dose 0.128 µM)”: the AUC turned out to be 0.835 and the IC50 amounted to 0.0928 µM.

Regarding “201T (lung adenocarcinoma, adherent, top dose 0.128 µM)”, the AUC was found to be 0.815 and the IC50 was 0.0937 µM.

For “451Lu (melanoma, adherent, top dose 0.128 µM)”, the AUC was found to be 0.908 and the IC50 is greater than 0.128 µM.

For “639-V (bladder, adherent, top dose 0.128 µM)”, the AUC stood at 0.982 and the IC50 is greater than 0.128 µM.

For “647-V (bladder, adherent, top dose 0.128 µM)”, the AUC was 0.936 and the IC50 is greater than 0.128 µM.

As to “697 (lymphoblastic leukaemia, suspension, top dose 0.128 µM)”, the AUC was determined as 0.161 and the IC50 was 0.00101 µM.

Turning to “769-P (kidney, adherent, top dose 0.128 µM)”, the AUC turned out to be 0.748 and the IC50 came to 0.0445 µM.

In the case of “786-0 (kidney, adherent, top dose 0.128 µM)”, the AUC was determined as 0.759 and the IC50 amounted to 0.0414 µM.

In the case of “5637 (bladder, adherent, top dose 0.128 µM)”, the AUC is 0.621 and the IC50 came to 0.0166 µM.

Consider “8305C (thyroid, adherent, top dose 0.128 µM)”, for which the AUC was found to be 0.934 and the IC50 is greater than 0.128 µM.

As for “8505C (thyroid, adherent, top dose 0.128 µM)”, the AUC was 0.805 and the IC50 came out at 0.0691 µM.

Turning to “23132-87 (stomach, adherent, top dose 0.128 µM)”, the AUC was 0.621 and the IC50 was determined as 0.0175 µM.

For the cell line “A3-KAW (B-cell lymphoma, suspension, top dose 0.128 µM)”, the AUC turned out to be 0.626 and the IC50 is 0.0165 µM.

As for “A4-Fuk (B-cell lymphoma, suspension, top dose 0.128 µM)”, the AUC amounted to 0.945 and the IC50 is greater than 0.128 µM.

As for “A101D (melanoma, adherent, top dose 0.128 µM)”, the AUC was found to be 0.981 and the IC50 was greater than 0.128 µM.

In the case of “A172 (glioma, adherent, top dose 0.128 µM)”, the AUC is 0.722 and the IC50 came to 0.0331 µM.

Take “A204 (rhabdomyosarcoma, adherent, top dose 0.128 µM)”: the AUC is 0.652 and the IC50 worked out at 0.024 µM.

For the cell line “A253 (head and neck, adherent, top dose 0.128 µM)”, the AUC was determined as 0.844 and the IC50 turned out to be 0.0881 µM.

“A375 (melanoma, adherent, top dose 0.128 µM)”: the AUC is 0.983 and the IC50 is greater than 0.128 µM.

With “A388 (skin, adherent, top dose 0.128 µM)”, the AUC came to 0.623 and the IC50 turned out to be 0.0184 µM.

Consider “A427 (non-small cell lung carcinoma, adherent, top dose 0.128 µM)”, for which the AUC was determined as 0.965 and the IC50 is greater than 0.128 µM.

On to “A431 (skin, adherent, top dose 0.128 µM)”, for which the AUC was determined as 0.532 and the IC50 is 0.00974 µM.

Turning to “A498 (kidney, adherent, top dose 0.128 µM)”, the AUC was 0.925 and the IC50 was greater than 0.128 µM.

Consider “A673 (rhabdomyosarcoma, adherent, top dose 0.128 µM)”, for which the AUC turned out to be 0.888 and the IC50 was determined as 0.119 µM.

For the cell line “A704 (kidney, adherent, top dose 0.128 µM)”, the AUC amounted to 0.972 and the IC50 was greater than 0.128 µM.

“A2058 (melanoma, adherent, top dose 0.128 µM)”: the AUC came out at 0.83 and the IC50 was 0.069 µM.

Regarding “A2780 (ovary, semi-adherent, top dose 0.128 µM)”, the AUC worked out at 0.27 and the IC50 was 0.00172 µM.

Take “ABC-1 (lung adenocarcinoma, adherent, top dose 0.128 µM)”: the AUC is 0.54 and the IC50 was 0.0105 µM.

For “ACHN (kidney, adherent, top dose 0.128 µM)”, the AUC was determined as 0.814 and the IC50 worked out at 0.0821 µM.

“AGS (stomach, adherent, top dose 0.128 µM)”: the AUC is 0.858 and the IC50 turned out to be 0.0879 µM.

For the cell line “ALL-PO (lymphoblastic leukaemia, suspension, top dose 0.128 µM)”, the AUC was 0.326 and the IC50 was determined as 0.00253 µM.

With “ALL-SIL (T-cell leukaemia, suspension, top dose 1.024 µM)”, the AUC was determined as 0.251 and the IC50 turned out to be 0.014 µM.

In the case of “AM-38 (glioma, semi-adherent, top dose 0.128 µM)”, the AUC amounted to 0.691 and the IC50 was 0.0278 µM.

For the cell line “AMO-1 (haematopoietic neoplasm, suspension, top dose 0.128 µM)”, the AUC was determined as 0.483 and the IC50 came out at 0.00723 µM.

On to “AN3-CA (endometrium, adherent, top dose 0.128 µM)”, for which the AUC stood at 0.564 and the IC50 worked out at 0.0122 µM.

Regarding “ARH-77 (myeloma, suspension, top dose 0.128 µM)”, the AUC was 0.325 and the IC50 came out at 0.00265 µM.

Consider “ASH-3 (thyroid, adherent, top dose 0.128 µM)”, for which the AUC was 0.884 and the IC50 was greater than 0.128 µM.

“ATN-1 (T-cell lymphoblastic leukaemia, suspension, top dose 1.024 µM)”: the AUC was determined as 0.339 and the IC50 came out at 0.0237 µM.

With “AU565 (breast, adherent, top dose 0.128 µM)”, the AUC turned out to be 0.729 and the IC50 came out at 0.039 µM.

Take “AsPC-1 (pancreas, adherent, top dose 0.128 µM)”: the AUC worked out at 0.777 and the IC50 stood at 0.0965 µM.

For the cell line “BB30-HNC (head and neck, adherent, top dose 0.128 µM)”, the AUC was 0.519 and the IC50 is 0.00901 µM.

Consider “BB49-HNC (head and neck, adherent, top dose 0.128 µM)”, for which the AUC stood at 0.956 and the IC50 is greater than 0.128 µM.

Turning to “BB65-RCC (kidney, adherent, top dose 0.128 µM)”, the AUC came to 0.879 and the IC50 was greater than 0.128 µM.

“BC-1 (B-cell lymphoma, suspension, top dose 0.128 µM)”: the AUC stood at 0.737 and the IC50 came to 0.0334 µM.

Consider “BC-3 (B-cell lymphoma, suspension, top dose 0.128 µM)”, for which the AUC came to 0.542 and the IC50 was 0.0103 µM.

Take “BCPAP (thyroid, adherent, top dose 0.128 µM)”: the AUC came to 0.759 and the IC50 was 0.0409 µM.

With “BE2-M17 (neuroblastoma, adherent, top dose 0.128 µM)”, the AUC came to 0.888 and the IC50 is greater than 0.128 µM.

The record behind these values is the supplement of paper PMC4967469.
